In assay [1] the target is T1, Days To Heading on chromosome 8 (DTH8), yeast two-hybrid fusion (rice (Oryza sativa)) (UniProt Q0J7P4).
T1 sequence: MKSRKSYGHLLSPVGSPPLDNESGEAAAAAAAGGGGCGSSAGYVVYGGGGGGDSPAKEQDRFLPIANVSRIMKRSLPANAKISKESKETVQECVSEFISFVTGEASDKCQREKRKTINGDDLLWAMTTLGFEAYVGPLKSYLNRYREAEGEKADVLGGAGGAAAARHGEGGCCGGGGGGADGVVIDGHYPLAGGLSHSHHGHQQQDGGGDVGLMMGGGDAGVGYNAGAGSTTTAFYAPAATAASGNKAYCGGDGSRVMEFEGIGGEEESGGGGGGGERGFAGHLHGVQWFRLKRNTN
Kind of assay: two-hybrid; 'preliminary yeast data', data not shown.

The chains behind the UniProt entries cited, without tags or fusion partners.
UniProt E5RQA1: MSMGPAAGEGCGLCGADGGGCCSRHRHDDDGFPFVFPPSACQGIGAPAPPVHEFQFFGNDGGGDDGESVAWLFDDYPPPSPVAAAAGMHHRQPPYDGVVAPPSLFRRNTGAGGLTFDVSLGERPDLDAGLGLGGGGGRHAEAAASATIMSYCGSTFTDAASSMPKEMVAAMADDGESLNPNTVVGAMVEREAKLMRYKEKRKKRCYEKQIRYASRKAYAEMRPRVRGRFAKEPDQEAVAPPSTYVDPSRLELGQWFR

For assay [2], the target named is T1, Days To Heading on chromosome 8 (DTH8), yeast two-hybrid fusion (rice (Oryza sativa)). Kind of assay: two-hybrid; pairwise; pGBKT7 baits and pGADT7 preys co-transformed into S. cerevisiae AH109; growth on Synthetic Dropout/-Trp-Leu-His-Ade at 30°C.
Assay [3] has as its target T2, Hd1 of the histidine pull-down (Fig. 8) (rice (Oryza sativa)), Q9FDX8.
T2 chain: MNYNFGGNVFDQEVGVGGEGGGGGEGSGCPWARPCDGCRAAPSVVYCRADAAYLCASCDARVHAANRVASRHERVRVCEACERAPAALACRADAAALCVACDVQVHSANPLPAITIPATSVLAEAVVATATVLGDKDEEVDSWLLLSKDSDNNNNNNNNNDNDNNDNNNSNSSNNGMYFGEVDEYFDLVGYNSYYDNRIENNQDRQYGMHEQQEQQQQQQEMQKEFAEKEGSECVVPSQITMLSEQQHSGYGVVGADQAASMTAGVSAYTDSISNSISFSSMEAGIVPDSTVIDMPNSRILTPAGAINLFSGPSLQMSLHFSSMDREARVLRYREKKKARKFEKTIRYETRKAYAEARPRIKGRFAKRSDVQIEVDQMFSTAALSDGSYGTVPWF
Description: pull-down; histidine pull-down of the three recombinant proteins OsHAPL1, DTH8 and Hd1 from E. coli; Hd1 as bait. To be noted: remark: other sources report otherwise.

Assay [4] concerns the target T3, GST-tagged DTH8 (rice (Oryza sativa)), Q0J7P4.
T3 chain: T1 sequence
Description: pull-down; GST pull-down; E. coli BL21 lysates of the two proteins mixed in 25 mM Tris-HCl pH 7.5, 150 mM NaCl, 1 mM DTT, glutathione agarose beads overnight at 4°C; washes with 1% Triton X100 and 0.1% SDS; blots with anti-GST and anti-MBP. To be noted: remark: other sources report otherwise.

The target in assay [5] is T4, pSPYNE173-DTH8 (BiFC fusion) (rice (Oryza sativa)), Q0J7P4.
T4 chain: T1 sequence
Description: split reporter; BiFC; YFPC (pSPYCE(M)) and YFPN (pSPYNE173) fusions, Agrobacterium GV3101 infiltration of N. benthamiana leaves, imaged 3 days after infiltration. To be noted: remark: other sources report otherwise.

From PMC6055584 come the findings set out here.

These are yes or no findings as the source states them, for the method shown. For some of these results: In cells and extracts the contact can be indirect. Some results given as binding are weak or reduced against the parent protein; the word gives no strength. Tags and fused reporters may be left off the sequences shown.

With “Grain number, plant height and heading date 7 (Ghd7), yeast fusion (from UniProt E5RQA1 1-257)”, in assay [1], the binding result is reported as “binds”.

B1: HAP3C (protein, UniProt Q65XK1 1-143)
chain: MSEGFDGTENGGGGGGGGVGKEQDRFLPIANIGRIMRRAVPENGKIAKDSKESVQECVSEFISFITSEASDKCLKEKRKTINGDDLIWSMGTLGFEDYVEPLKLYLRLYRETEGDTKGSRASELPVKKDVVLNGDPGSSFEGM
Turning to B1, the binding entry in assay [2] was “binds”.

B2: Days To Heading on chromosome 8 (DTH8), yeast two-hybrid fusion (protein, UniProt Q0J7P4 1-297)
chain: T1 sequence
In the case of B2, the binding entry in assay [2] is reported as “binds”.

B3: GST-tagged DTH8, Q0J7P4 1-297 (protein)
chain: T1 sequence
Take B3: the binding entry in assay [3] was “binds”.

B4: Hd1, recombinant, of the GST pull-down (Fig. 7B), Q9FDX8 1-395 (protein)
chain: T2 chain
For the molecule B4, the binding result in assay [4] is “binds”.

B5: Hd1 BiFC fusion, Q9FDX8 1-395 (protein)
chain: T2 chain
In the case of B5, in assay [5], the binding entry is “binds”.

B6: TFIIB (protein, UniProt Q8W0W3 1-312)
chain: MSDSFCPDCKKHTEVAFDHSAGDTVCTECGLVLEAHSVDETSEWRTFANESSDNDPVRVGGPTNPLLTDGGLSTVIAKPNGAQGEFLSSSLGRWQNRGSNPDRSLILAFRTIANMADRLGLVATIKDRANEIYKKVEDLKSIRGRNQDAILAACLYIACRQEDRPRTVKEICSVANGATKKEIGRAKEFIVKQLEVEMGQSMEMGTIHAGDFLRRFCSTLGMNNQAVKAAQEAVQRSEELDIRRSPISIAAAVIYMITQLSDDKKPLKDISLATGVAEGTIRNSYKDLYPYASRLIPNTYAKEEDLKNLCTP
B6: the binding result in assay [2] is “no binding”.
